# Data: PMC4336329 (PLoS ONE, 2015)
# Out of some 310,000 compounds screened, about 2,200 (0.71%) showed an effect of 50% or more. The effect is printed as a negative number. The list shows a part of the results.
# Target: human ether-à-go-go-related gene (hERG) potassium channel (human, UniProt Q12809)
# Test: primary screen, population patch clamp on CHO cells stably expressing hERG
# Sequence of human ether-à-go-go-related gene (hERG) potassium channel (Q12809 whole entry, looked up): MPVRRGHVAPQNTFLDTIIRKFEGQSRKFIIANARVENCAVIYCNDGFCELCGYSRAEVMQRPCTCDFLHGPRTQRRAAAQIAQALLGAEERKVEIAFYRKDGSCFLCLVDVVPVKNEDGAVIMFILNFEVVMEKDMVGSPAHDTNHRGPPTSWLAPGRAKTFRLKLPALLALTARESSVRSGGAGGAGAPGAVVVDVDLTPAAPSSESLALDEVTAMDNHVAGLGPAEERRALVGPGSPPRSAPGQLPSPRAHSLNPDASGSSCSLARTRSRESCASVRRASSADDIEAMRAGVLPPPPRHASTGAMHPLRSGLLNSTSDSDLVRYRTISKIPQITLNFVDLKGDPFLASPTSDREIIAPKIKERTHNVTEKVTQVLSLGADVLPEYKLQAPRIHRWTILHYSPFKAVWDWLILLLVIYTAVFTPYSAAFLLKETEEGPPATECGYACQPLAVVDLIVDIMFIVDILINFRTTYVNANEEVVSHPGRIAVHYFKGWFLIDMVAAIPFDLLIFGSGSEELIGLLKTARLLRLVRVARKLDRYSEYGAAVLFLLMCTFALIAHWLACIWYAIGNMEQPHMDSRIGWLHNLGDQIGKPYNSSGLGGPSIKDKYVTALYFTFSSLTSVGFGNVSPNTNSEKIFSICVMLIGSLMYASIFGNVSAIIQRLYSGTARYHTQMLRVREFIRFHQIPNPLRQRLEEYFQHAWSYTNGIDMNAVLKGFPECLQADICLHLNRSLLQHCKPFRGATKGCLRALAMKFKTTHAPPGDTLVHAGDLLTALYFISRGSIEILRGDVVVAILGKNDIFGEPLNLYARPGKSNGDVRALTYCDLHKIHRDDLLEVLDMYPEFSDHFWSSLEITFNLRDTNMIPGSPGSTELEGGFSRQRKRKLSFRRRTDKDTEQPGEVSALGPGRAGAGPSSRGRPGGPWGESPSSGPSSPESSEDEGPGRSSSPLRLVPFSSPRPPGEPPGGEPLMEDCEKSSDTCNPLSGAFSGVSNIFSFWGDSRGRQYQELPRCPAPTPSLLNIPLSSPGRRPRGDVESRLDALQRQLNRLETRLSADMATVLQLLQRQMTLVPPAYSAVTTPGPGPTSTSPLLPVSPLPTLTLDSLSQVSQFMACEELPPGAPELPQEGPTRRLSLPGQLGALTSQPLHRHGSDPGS
row,SMILES,"hERG current change (%, negative = inhibition) at 1uM [%]"
1,CCSc1nnc(NC(=O)Cn2cnc3c2c(=O)n(C)c(=O)n3C)s1,7.32
2,COc1ccc(OCCCC(=O)NNC(=O)CCN2CCN(c3ccccc3)CC2)cc1,11.1
3,O=C(NCc1ccc(Cl)cc1)C(=O)NCC(c1cccnc1)N1CCN(c2ccc(F)cc2)CC1 (stereo not shown),-4.09
4,Cc1cc(N)ccc1-n1c(C)ccc1C,7.5
5,COc1ccc(OC)c(C(=O)CN2CCN(S(=O)(=O)c3ccc(Br)cc3)CC2)c1,5.24
6,O=C(NCc1ccccc1Cl)c1ccc2c(c1)OCO2,8.05
7,CC(=O)OCCc1[nH]c2ccccc2c1C,11.5
8,CCOC(=O)c1c(C)[nH]c(C(=O)Cn2c(=O)oc3ccccc32)c1C,6.13
9,COc1ccc(CC(=O)Nc2ccc(NC(=O)c3ccccc3F)cc2)cc1,19.9
10,COc1ccc(NC(=O)CN(C)C(=O)c2ccc(NS(=O)(=O)c3ccc(F)cc3)cc2)cc1,19.7
11,Cc1nnc(SCC(=O)NC(=O)NC(C)C)s1,9.55
12,CCOc1cc(/C=N/n2c(C)nc3ccccc3c2=O)ccc1O,18.6
13,CCN(CC)CCCNc1nc(-c2ccccc2)nc2ccccc12.Cl,-15.9
14,O=C(O)c1[nH]c2ccc(Cl)cc2c1CCN1C(=O)c2ccccc2C1=O,1.54
15,Cc1nc(NC(=O)COC(=O)C(C)NC(=O)c2ccccc2)c(Cl)cc1Cl (stereo not shown),8.59
16,CCC(C)N(CCNC(=O)c1ccc2c(c1)NC(=O)c1ccccc1S2)C1CCCCC1 (stereo not shown),2.55
17,O=C(CCN1C(=O)S/C(=C\c2ccccc2)C1=O)NCCCn1ccnc1,11.2
18,COc1cc(/C=C2\SC(=S)N(CC(=O)Nc3ccccn3)C2=O)cc(OC)c1OC,16
19,CCn1nnc2cc(C(=O)N(CCOC)CC(=O)Nc3cccc(C)c3C)ccc21,6.81
20,NS(=O)(=O)c1ccc(N/N=C/c2ccc(O)cc2O)c([N+](=O)[O-])c1,12.3
21,Cc1cc(NS(=O)(=O)c2ccc(NC(=O)/C=C/c3ccc(C)o3)cc2)nc(C)n1,14.7
22,Cc1ccc(NC(=O)c2cncc(Br)c2)cc1S(=O)(=O)N(C)C,16.1
23,CCOC(=O)c1sc(NC(=O)c2sc(C)nc2C)nc1C,6.2
24,O=P(Nc1ccccc1)(Oc1ccccc1)Oc1ccccc1,7.83
25,CS(=O)(=O)c1nc(-c2ccccc2)cc(C(F)(F)F)n1,15.6
26,CCn1c(C)cc2c(c1=O)C(c1ccccc1)C(C(=O)OC)=C(N)O2 (stereo not shown),23.4
27,COC(=O)Cc1ccc2c3ccccc3n(C)c2c1,13
28,CN1CCN(C(=S)NC(=O)c2ccc(C(C)(C)C)cc2)CC1,3.98

row,SMILES,"hERG current change (%, negative = inhibition) at 1uM [%]"
1,O=C(C1=C[C@H](c2ccc(Br)cc2)C[C@H](OCCCCO)O1)N1CCN(Cc2ccccc2)CC1,-23.1
2,Cc1cccc(NC(=O)CCS(=O)(=O)c2cc3c(cc2Cl)NC(=O)CO3)c1,4.7
3,COc1ccc2[nH]c3c(c2c1)CCN1C(=O)N([C@@H](C)C(=O)NC2CC2)C(=O)[C@]31C,2.63
4,COc1ccc2c(c1OC)C(=O)OC2C1c2cc3c(cc2CCN1C)OCO3 (stereo not shown),7.16
5,COc1ccc(C2c3c(ccc4ccccc34)Oc3ncn4nc(-c5ccco5)nc4c32)cc1OC (stereo not shown),-10.5
6,Cc1c(Cl)c([N+](=O)[O-])nn1CCCC(=O)O,9.61
7,CCOC(=O)c1csc(NC(=O)c2ccc(C#N)cc2)n1,9.89
8,O=C(NC(c1ccc(Cl)cc1)c1cc(Cl)c2cccnc2c1O)c1cccnc1 (stereo not shown),-1.36
9,C=CCN(CC=C)C(=O)c1cccc(OC2CCN(CC(C)(C)C)CC2)c1,10.9
10,CCOC(=O)c1c(-c2ccccc2)oc2ccc(OC(=O)N(C)C)cc12,-6.94
11,CCO[C@H]1OC(C(=O)N2CCN(C)CC2)=C[C@@H](c2coc3ccccc3c2=O)[C@@H]1CCCO,16.6
12,CC(C)(C)Nc1nc(NC(C)(C)C)nc(-n2ccnc2)n1,7.48
13,O=[N+]([O-])c1ccccc1NCCNS(=O)(=O)c1ccc(Cl)cc1,13.1
14,Oc1cccc(NC(=S)Nc2ccccc2)c1,-0.841
15,CC(C)n1c(=S)[nH]c2scc(-c3cccs3)c2c1=O,17.5
16,Cc1csc2nc3ccccc3c(=O)n12,13.7
17,COc1cc(/C=C2\SC(=O)NC2=O)ccc1Oc1cnccn1,9.73
18,COc1cccc2cc(NC(=O)C3CCCCC3)c(=O)oc12,9.19
19,COc1cccc(Oc2nc(-c3ccncc3)nc3ccccc23)c1,13.8
20,Cc1ccc(N2C(=O)[C@@H]3[C@H](C2=O)C2CCCN2[C@@H]3C(=O)c2ccccc2)cc1 (stereo partly shown),14.9
21,CCOC(=O)C1=C(C)NC(=O)C(C(N)=O)C1c1ccccc1 (stereo not shown),15.8
22,O=C(Cn1c(=O)c2sccc2n(Cc2ccc([N+](=O)[O-])cc2)c1=O)NCCc1ccccc1,-17
23,CN1C(=O)N(C)C2(CC1(C)C)CC(C)(C)N(C)C(=O)N2C,11.8
24,CC(=O)c1cccc(NC(=O)CCN2C(=O)C3CC=CCC3C2=O)c1 (stereo not shown),8.9
25,CCCOc1ccc(C(F)(F)F)cc1NC(=O)CN1C(=O)C(=O)N(CC)C1=O,8.1
26,O=C(ON=C1CCN(S(=O)(=O)c2ccccc2)CC1)c1ccc(F)cc1,4.64
27,CN(C)S(=O)(=O)c1cccc(NC(=O)c2n[nH]c(=O)c3ccccc23)c1,5.12
